# Reference: patent publication US6878742B2, “Heterocyclic sulfonamide inhibitors of beta amyloid production” (Wyeth, priority 2000, dated 2005)
# “And” between values parts separate entries of the source, which are not always exact repeats. Identical values can stand only once. At least one read-out could not be matched to a standard name with certainty.
# System: amyloid precursor protein (APP) proteolysis
# Assay: Repressor Release Assay (RRA)
# Format: cell-based
# Conditions: luciferase activity over diluent control
# Description: The beta amyloid inhibitory activity of many of the compounds of the present invention has been determined using the Repressor Release Assay (RRA). See, Table 23 below. A compound is considered active in RRA if it leads to at least a 1.5 fold increase in luciferase activity at 20 μM and is non-toxic.
# The compounds generated as described in Examples 1 through 220 were tested in the RRA in accordance with published techniques [Shuey, D. J., Sheiffele, P., Jones, D., Cockett, M. I., and Quinet, E. M. (1999), “Repressor release: a useful tool for monitoring amyloid precursor protein (APP) proteolysis in mammalian cells”, Society for Neuroscience Abstracts, Vol. 25, 29th Annual Meeting of Society for Neuroscience, Miami Beach, Fla., Oct. 23-28, 1999]. Briefly, this assay is performed as follows.
# CHO-K1 cells are cultured in whole DMEM media (DMEM—High Glucose with 10% fetal bovine serum, 1% Non-essential Amino Acids, and 1% Penicillin-Streptomycin) at 37° C. with 5% CO2. Two million cells are plated into 10-cm dishes 24 hrs prior to transfection.
# Transient transfections are completed as recommended by Gibco BRL using their Lipofectamine Plus system. First, 6 μg of pRSVO-luc and 6 μg of APP-lacI construct DNA are added to 460 μL Opti-Mem transfection media and incubated with 30 μL Plus reagent for 15 minutes. Then, a lipid mixture of 40 μL Lipofectamine reagent and 460 μL Opti-Mem transfection media is incubated with the DNA-Plus reagent mixture for 15 minutes. During the DNA-lipid incubation, the CHO-K1 cells are washed once and covered in 5.0 mL DMEM media without Penicillin-Streptomycin. The DNA-lipid preparation is then layered onto these cells and incubated at 37° C. overnight.
# One and one half million transfected cells per well (100 μL total volume) are plated into sterile, opaque Packard 96-well Cultur-Plates in clear DMEM whole media (DMEM—without phenol red) and incubated at 37° C. with 5% CO2 for 3-5 hours.
# Compounds are diluted using two different protocols; one protocol is used for compounds supplied neat (weighed powder in vial) and the other protocol is used for compounds supplied in solution (20 mM in DMSO in 96-well plates). For both protocols, 25 mM Hepes and 25 mM Hepes/1% DMSO are prepared fresh to be used as diluent. The Hepes/DMSO is used as the diluent control on all experimental plates.
# The following table depicts the steps for compound dilution (please note that the last step is the addition of compound to cells/media in tissue culture plate):
# Because some compounds arrive in 96-well format at 20 mM, the following represents the protocol for their dilution (note that an average molecular weight of these compounds was used to calculate these dilutions and as above, the last step is the addition of compound to cells/media in tissue culture plate):
# Once compounds are diluted, they are applied in duplicate on cells in tissue culture plates (prepared above). Cells are incubated with compound at 37° C. with 5% CO2 for an additional 36-48 hours.
# Luciferase assays (LucLite reagent, Packard) are performed and are read on a Packard TopCount instrument. Media is removed from each 96-well plate and replaced with 100 μL PBS per well (with Mg^2+ and Ca^2+). An equal volume (100 μL) of the LucLite lysis/substrate buffer is added to each well and the plates are sealed and mixed in the dark on a rotary shaker for 15-30 minutes at room temperature. Luciferase readings are then taken on the TopCount instrument. Measurements are expressed as relative light units (RLU) and are calculated and analyzed in MS Excel as follows.
# A compound is considered active in RRA if it leads to at least a 1.5 fold increase in luciferase activity at 20 μM and is non-toxic, as determined by loss of signal (≦0.75 fold increase). Fold increase is the amount of luciferase activity (measured in relative light units) over diluent control. SEM represents the standard error of the mean for fold increase (not shown).
structure (smiles),measurement,setting,value
"CCC(CC)[C@H](NS(=O)(=O)c1ccc(Cl)s1)C(C)O (stereo partly drawn) [Example 222, 5-Chloro-N-[(S)-2-ethyl-1-(1-hydroxyethyl)butyl]thiophene-2-sulfonamide]",APPI Fold Increase,Conc 20 μg/mL,9.7 fold
"O=S(=O)(NC1(CO)CCCCC1)c1ccc(Cl)s1 [Example 177, 5-Chloro-N-[1-(hydroxymethyl)cyclohexyl]thiophene-2-sulfonamide]",APPI Fold Increase,Conc 20 μg/mL,3.7 fold
"O=S(=O)(N[C@H](CO)C1CCCCC1)c1ccc(Cl)s1 [Example 12, 5-Chloro-N-[(1S)-1-cyclohexyl-2-hydroxyethyl]thiophene-2-sulfonamide]",APPI Fold Increase,Conc 1 μg/mL,2 fold
same,APPI Fold Increase,Conc 3 μg/mL,3.1 fold
same,APPI Fold Increase,Conc 10 μg/mL,3.9 fold
same,APPI Fold Increase,Conc 20 μg/mL,8.6 fold
"CC[C@H](C)[C@H](NS(=O)(=O)c1ccc(Cl)s1)C(C)O (stereo partly drawn) [Example 119, 5-Chloro-N-[(S,S)-1-(1-hydroxyethyl)-2-methylbutyl]thiophene-2-sulfonamide]",APPI Fold Increase,Conc 10 μg/mL,3.76 fold
"CC[C@H](C)[C@@H](CO)NS(=O)(=O)C1=CC=C(Br)S1(=O)=O [Example 18, 5-Bromo-N-[(1S,2S)-1-(hydroxymethyl)-2-methylbutyl]thiophene-2-sulfonamide 1,1-dioxide]",APPI Fold Increase,Conc 20 μg/mL,3 fold
"CC[C@H](C)[C@H](NS(=O)(=O)c1ccc(Cl)s1)[C@@H](O)C1C=CCCC1 (stereo partly drawn) [Example 155, 5-Chloro-N-{(S,S)-1-[(S)-cyclohex-2-en-1-yl(hydroxy)methyl]-2-methylbutyl}thiophene-2-sulfonamide]",APPI Fold Increase,Conc 20 μg/mL,2.6 fold
"CCC(CC)[C@H](NS(=O)(=O)c1ccc(Cl)s1)C(C)(C)O [Example 223, 5-Chloro-N-[(S)-2-ethyl-1-(1-hydroxy-1-methylethyl)butyl]thiophene-2-sulfonamide]",APPI Fold Increase,Conc 20 μg/mL,8.4 fold
"CC[C@H](C)[C@@H](CO)NS(=O)(=O)c1ccc(Cl)o1 [Example 204, 5-Chloro-N-[(1S,2S)-1-(hydroxymethyl)-2-methylbutyl]-2-furansulfonamide]",APPI Fold Increase,Conc 20 μg/mL,2.5 fold
"CC(C)[C@@H](CO)NS(=O)(=O)c1ccc(Cl)s1 [Example 8, 5-Chloro-N-[(1S)-1-(hydroxymethyl)-2-methylpropyl]thiophene-2-sulfonamide]",APPI Fold Increase,Conc 20 μg/mL,5 fold and 3.8 fold
